Sequences and labels used below:
B1: LINE1-mini (parent)
chain: GGCAGAGCUCAACACAGCGUGGCAAAGUGGCUGUGGCUAGACUGCC

The text below walks through data of the RNAGym collection of RNA variant scans (doi:10.7554/elife.90254).

Read counts are not given, so values of variants with three or more changes are uncertain.

The series covers variants of B1. The series is described as follows: self-cleavage, relative activity (ratio to wild type); higher = more cleavage; in vitro, sequencing; the parent is a self-cleaving ribozyme.
Regarding C3G C8U C13U A39G C42U, the self-cleavage turned out to be 0.13.
Regarding C3G C13A G27A A41U, the self-cleavage worked out at 0.06.
In the case of C3G A4U G5C A11C C13A G19C G27A G29A C46U it was 0.03; in that of C3G A12G G35C, 0.09; in that of C3G A12G C13G A41G, 0.06.
The same measure for C3G C15U C31A: 0.19; for C3G C8U C15A C45G C46A: 0.68.
In the case of C3G A16U G27U A41G it was 0.07.
For the variant C3A U20G G36U A39G, the self-cleavage was 0.12.
In the case of C3A G36A G40C it was 0.78; in that of C3G C15U G27C U34G G35A, 0.03.
In the case of C3A G22U G35A it was 0.17; in that of C3G A16G U32A, 0.04.
In the case of C3G C10A U20A C46G it was 0.03; in that of C3G A12C U38C, 0.02.
C3G C18U U20C U28C G35U G36U C45U: the self-cleavage was 0.01.
Turning to C3G A4C A26C G29C, the self-cleavage amounted to 0.13.
In the case of C3A U9A C18A G22U C23G C42U it was 0.22; in that of C3G C10U C13G, 0.06.
The same measure for C3G A4U C13A U20G A25G G33A: 0.08; for C3G C10A A12C C18U C42G: 0.01.
As for C3G A12G G27A G29U, the self-cleavage came out at 0.06.
In the case of C3G A6C G19U G35U it was 0.05; in that of C3G A4U G33U, 0.12; in that of C3G C18G G35C C37G A39C, 0.03.
Regarding C3A U9A G22U A24C C46A, the self-cleavage was determined as 0.35.
Take C3A U20A A26G G30A U34A: the self-cleavage is 0.08.
For C3A U9A A11C A26U G27C, the self-cleavage was found to be 0.02.
In the case of C3G A11C G17U C31G it was 0.01; in that of C3G A11U C18U G35U, 0.04.
For the variant C3A U9G C10U G19A U34G, the self-cleavage was determined as 0.08.
Regarding C3G A14U G35C, the self-cleavage came out at 0.07.
On to C3G C13U G36U C45A, for which the self-cleavage is 1.86.
The same measure for C3A U9A G40A: 0.34; for C3G A25G U34G: 0.13; for C3G C8U C10G C15A G27A C46G: 0.07.
As to C3A G40C U43A, the self-cleavage turned out to be 0.16.
In the case of C3G C18A G30A G36U it was 0.53.
Take C3G A16G G27C C37G: the self-cleavage was found to be 0.15.
The same measure for C3G A4C A6G: 0.07; for C3G A4C A6U: 0.26.
In the case of C3G C10G G17U G44A C45A it was 0.04; in that of C3A G36A C37G, 0.07; in that of C3A G30A C46U, 0.16.
In the case of C3G C8A A24C G30A it was 0.6; in that of C3G C10U G29U C31U C37G, 0.12; in that of C3A U9G G21A A25U G33A G35C G44A C46G, 0.11.
C3G C23A U38G C42U: the self-cleavage is 0.02.
In the case of C3A G30A U38G it was 0.14.
The same measure for C3G C13U C18A G27U G29U: 0.02; for C3G A16G G35U: 0.07; for C3G C13G A25C A26G G27U C45A: 0.14.
Regarding C3G A41U C45U, the self-cleavage was 0.45.
Take C3G C10U G21C G27U G30C G35C: the self-cleavage came out at 0.07.
In the case of C3G A4G A6C G21U C23U it was 0.14; in that of C3G A12C A39C G44A, 0.01; in that of C3G C8A A12C, 0.21.
With C3A G30C G36A, the self-cleavage was determined as 0.18.
Turning to C3G A14C G21C G27C G35U U38C C45A, the self-cleavage amounted to 0.01.
For C3A G29C C46A, the self-cleavage is 0.18.
The same measure for C3G A16C U28A G33A U34G U38G: 0.05.
For C3G A16G G30C, the self-cleavage is 0.06.
C3G A6C C8G C13A C42U: the self-cleavage came to 0.01.
The same measure for C3G C10U G29A: 0.11.
On to C3G A14U G33A A39G, for which the self-cleavage was 0.41.
In the case of C3G C15G A26G it was 0.08; in that of C3G C10A G29U C46A, 0.02; in that of C3G A16U C18U, 0.07.
Take C3A G29U G30U U34C C42U: the self-cleavage is 0.17.
Take C3G A24U C31G: the self-cleavage is 0.14.
In the case of C3A U9G C18G A39U it was 0.45; in that of C3G A6G C13U, 0.62; in that of C3G A12C C15U G29U G30A, 0.06.
As for C3G A4U C13G A16U C37U, the self-cleavage worked out at 0.07.
In the case of C3G A12U C15A G19U U32C it was 0.26; in that of C3G C8A C10A G17C, 0.02; in that of C3A G36A G44U, 0.12.
The same measure for C3G A14U U34A A39C: 0.03; for C3G C8A C15A C18U A24U: 0.71.
For C3A G27U G35A U38C, the self-cleavage stood at 0.08.
The same measure for C3G A14G A26G C37G: 0.84; for C3G A14U C15G U28G G35U C42U: 0.
As for C3A U9A C18U A24C A25U U34G C45A, the self-cleavage amounted to 0.57.
The same measure for C3G C15G C18U U32C: 0.01.
For C3G A14U G19U, the self-cleavage amounted to 0.66.
The same measure for C3G A4G A14G C15G G36A: 0.09; for C3A U20G G36C: 0.01; for C3G A6U U32G: 0.07.
The same measure for C3A U20G U34A: 0.14; for C3G A24U G29U C42G: 0.43.
The same measure for C3A U20G C46U: 0.15; for C3G A16G U28C G35C C45A C46G: 0.01; for C3G C10G G33C: 0.02.
With C3G A12C G27C, the self-cleavage was 0.01.
Turning to C3G C23A G36C G40A, the self-cleavage amounted to 0.41.
Regarding C3G A6G A11U U38C, the self-cleavage turned out to be 0.01.
Consider C3G A6C G17A G22U U34A, for which the self-cleavage amounted to 0.09.
In the case of C3G C10A A11U A25C C31A it was 0.01.
C3A U9C G17A G30U G40U: the self-cleavage is 0.01.
In the case of C3A U28A C42A it was 0.06.
In the case of C3G C18U G35U it was 0.19.
As to C3G C8A G36A U43A, the self-cleavage was 0.22.
The same measure for C3A U9G A12G C23A: 0.08.
As to C3A U20A G27C, the self-cleavage is 0.25.
The same measure for C3G A12U G17C: 0.05; for C3G A11U U32A: 0.03.
The same measure for C3G C10U A11C G27A U32C: 0.04; for C3G A12C C13G U32G: 0.05; for C3G A16G U38A: 0.07.
In the case of C3G A6C G7A A11G it was 0.05; in that of C3A U32G A39C, 0.05.
In the case of C3G A4C C8U U20C G27U G33U C46A, the self-cleavage came out at 0.14.
The same measure for C3A U32A G36U: 0.28.
The same measure for C3A U38C A39C: 0.38; for C3G C8U G19U U28A U34A U43A: 0.07; for C3G A16C G27A U28G U34A U38G: 0.03.
As to C3G C8A C31G C37G, the self-cleavage came out at 0.09.
The same measure for C3G C8U G21U: 0.11; for C3G A12G G21U U34G: 0.01; for C3A U9A G21A: 1.43.
With C3A G40A C42U, the self-cleavage is 0.08.
The same measure for C3G C10U G27A A39G G44U: 0.05.
Turning to C3G A4G C8U U9A, the self-cleavage amounted to 0.08.
Consider C3A U9A C23A G29A C45G, for which the self-cleavage worked out at 0.13.
The same measure for C3G C10A A11U C15A G22A A26G G29U C31U: 0.02; for C3A U38C C42U: 0.38; for C3G C13A C23A C46U: 0.11.
Regarding C3G A16G U20A, the self-cleavage amounted to 0.06.
The same measure for C3G A14G A25U G27C G36U: 0.48; for C3G C15G G36A U38G C46A: 0.04; for C3G A11C C31G: 0.01.
The same measure for C3G C13U G44C: 0.03.
In the case of C3G A26C U34A it was 0.05; in that of C3G C13U A26U C37A, 1.8.
On to C3G A25G C42A, for which the self-cleavage was 0.14.
C3G C10A A11U G27C G29U: the self-cleavage is 0.02.
In the case of C3A G40A G44A C45G, the self-cleavage turned out to be 0.15.
C3G A4C A6U C42A: the self-cleavage stood at 0.06.
As to C3G A26U U28G A41C, the self-cleavage is 0.07.
In the case of C3G A4C A11G C23A A26C it was 0.02.
In the case of C3G A25U U43C it was 0.14; in that of C3G A4G C8U U32G, 0.08.
For C3G A4C C18A G30C G40C G44A, the self-cleavage amounted to 0.18.
The same measure for C3A U20G G21A U43G: 0.05.
In the case of C3A U9G U34C it was 0.19; in that of C3G C15U A24U, 0.5; in that of C3A U9C A26C C37A, 0.05.
In the case of C3G C13A A14G G17C A25U U28C it was 0.06; in that of C3G C10A G33C, 0.01.
C3G A12U C15A A26G: the self-cleavage is 0.16.
On to C3G C8A G17U G22C C37A, for which the self-cleavage is 0.01.
In the case of C3G A16G C23G G44U it was 0.15; in that of C3G A4U C10U G29C, 0.
The same measure for C3G A4C A6U A12C U32C G40U C45G: 0; for C3G C13U C15G G30U: 0.07; for C3G C8U U9G U28C G33U: 0.07.
Turning to C3A G44U C46A, the self-cleavage amounted to 0.28.
Take C3G C18A G44U C46A: the self-cleavage turned out to be 0.08.
As to C3G A6G C13A C15G U32G, the self-cleavage turned out to be 0.06.
In the case of C3G C15G A26U G27C it was 0.02.
In the case of C3G C18A G21U U28G it was 0.15; in that of C3G C13U C18U G19A A41G, 0.02.
In the case of C3G C18U G29C, the self-cleavage amounted to 0.26.
Consider C3G C18U C23G, for which the self-cleavage came to 0.54.
Turning to C3A G22U U38C, the self-cleavage amounted to 0.23.
In the case of C3G A6U G7U C18G C23U it was 0.13; in that of C3G C15G G29U, 0.19.
